From a collection of fitness landscapes (doi:10.1038/s41467-024-54723-y)
Whole data set: some 18,000 sequences, median “TetR repression strength (sort-seq, GFP reporter)” near 0.23, cut for the highest 2% near 0.68. This is one part of the list.

molecular target: TetR (class B, Tn10) (UniProt P04483); experiment: TetR repression strength (sort-seq, GFP reporter) (relative to tetO2 = 1); higher = stronger repression; conditions: E. coli
Method in brief: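 E. coli SIG10-MAX carried a low-copy plasmid library with eight randomized operator positions between a constitutive promoter and sfGFP, with TetR constitutively expressed. Cells grew 5 h at 37 °C in LB with 50 µg/mL chloramphenicol, then 10^6 cells were FACS-sorted into 13 fluorescence bins, each Illumina-sequenced. Repression strength is the top bin index plus one minus the read-weighted mean bin, divided by the wild-type operator value. Three independent transformations; variants with ≥30 reads in all replicates and CV ≤0.5 were averaged.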

Sequence of UniProt P04483 (P04483 whole entry): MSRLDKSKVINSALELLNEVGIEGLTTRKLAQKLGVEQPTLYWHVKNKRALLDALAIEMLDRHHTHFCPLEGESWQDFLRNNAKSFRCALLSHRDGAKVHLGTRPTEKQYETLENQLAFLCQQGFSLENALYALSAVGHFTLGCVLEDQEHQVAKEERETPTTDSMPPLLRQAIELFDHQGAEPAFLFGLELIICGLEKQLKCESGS

Sequence	TetR repression strength
TCCCGTTGAGTAACTGAGA	0.583
TCCCCGGGAGTTGCGGAGA	0.232
TCCCATGCAGTTCGAGAGA	0.14
TCCCCGGGAGTCCATGAGA	0.227
TCCCTGCCAGTTGTGGAGA	0.217
TCCCCATGAGTGTGCGAGA	0.0532
TCCCAGTAAGTGGCCGAGA	0.111
TCCCGTATAGTGTGGGAGA	0.00296
TCCCAAGGAGTCGTTGAGA	0.119
TCCCACAAAGTCGAAGAGA	0.275
TCCCATCCAGTGTAGGAGA	0.144
TCCCGAAAAGTGCGCGAGA	0.375
TCCCCGGGAGTAGGGGAGA	0.3
TCCCCGTTAGTATGGGAGA	0.0862
TCCCGGGGAGTACGAGAGA	0.451
TCCCCCGAAGTGAACGAGA	0.193
TCCCTCCGAGTTGTTGAGA	0.127
TCCCGATAAGTTATGGAGA	0.375
TCCCGTGAAGTGCGTGAGA	0.199
TCCCTTCTAGTAGCCGAGA	0.434
TCCCTTCGAGTAATGGAGA	0.299
TCCCGAGAAGTTCTCGAGA	0.163
TCCCCTCAAGTCGGTGAGA	0.032
TCCCTTTTAGTATTAGAGA	0.347
TCCCTGCGAGTCAGTGAGA	0.0497
TCCCCGGTAGTTCGAGAGA	0.0814

Sequence	TetR repression strength
TCCCTCGTAGTGCAGGAGA	0.217
TCCCAGAGAGTTGCAGAGA	0.326
TCCCAGGGAGTTGTTGAGA	0.213
TCCCGCCGAGTCGAAGAGA	0.242
TCCCTGGTAGTCGGCGAGA	0.208
TCCCGAACAGTATCGGAGA	0.194
TCCCCATCAGTTGTTGAGA	0.335
TCCCGTTGAGTAGTAGAGA	0.223
TCCCGACAAGTGGGGGAGA	0.183
TCCCTTGGAGTACTGGAGA	0.174
TCCCGTCGAGTGTTGGAGA	0.139
TCCCGGGTAGTCCGGGAGA	0.112
TCCCTAAGAGTGATTGAGA	0.486
TCCCAGGGAGTGAGCGAGA	0.231
TCCCGTCAAGTGCAAGAGA	0.394
TCCCTGACAGTCTATGAGA	0.21
TCCCATTTAGTGGTGGAGA	0.218
TCCCTCAGAGTGCCGGAGA	0.563
TCCCTTCGAGTTCTGGAGA	0.328
TCCCTCGGAGTCCACGAGA	0.23
TCCCGTTGAGTGAATGAGA	0.467
TCCCTGGTAGTGACTGAGA	0.0995
TCCCTGGAAGTGGTAGAGA	0.163
TCCCACAGAGTAACTGAGA	0.348
TCCCCTACAGTGGACGAGA	0.0338
TCCCTTTTAGTCTTGGAGA	0.0784

Sequence	TetR repression strength
TCCCCTTAAGTTTGAGAGA	0.42
TCCCGTCCAGTGGGGGAGA	0.163
TCCCCAACAGTGAGTGAGA	0.185
TCCCGCGCAGTGATCGAGA	0.261
TCCCTTTAAGTGTCTGAGA	0.27
TCCCACTGAGTCTTGGAGA	0.0452
TCCCCGCGAGTCCGGGAGA	0.119
TCCCGGGGAGTTAGCGAGA	0.135
TCCCCTAAAGTGTTTGAGA	0.416
TCCCATGCAGTAGTCGAGA	0.183
TCCCGGGAAGTGAGTGAGA	0.202
TCCCTTACAGTCTACGAGA	0.405
TCCCCGTAAGTTTGAGAGA	0.211
TCCCATGCAGTGGCCGAGA	0.111
TCCCTGTTAGTGGGAGAGA	0.189
TCCCAAAGAGTCAGAGAGA	0.192
TCCCAGTCAGTAGGTGAGA	0.196
TCCCTAGCAGTCCTCGAGA	0.336
TCCCTCGCAGTGGTCGAGA	0.284
TCCCGACTAGTAATTGAGA	0.162
TCCCGGCCAGTCGTAGAGA	0.276
TCCCCTCCAGTCGACGAGA	0.412
TCCCTGGAAGTCCCAGAGA	0.0672
TCCCTCAGAGTAGAGGAGA	0.193
TCCCGCGAAGTGAATGAGA	0.194
TCCCTAATAGTTCTTGAGA	0.104

Sequence	TetR repression strength
TCCCATACAGTTATAGAGA	0.226
TCCCTGAGAGTGTCAGAGA	0.257
TCCCATCAAGTATAGGAGA	0.00518
TCCCTTTGAGTCGTAGAGA	0.408
TCCCTTAAAGTCACGGAGA	0.203
TCCCCGTAAGTGTTAGAGA	0.236
TCCCTCTCAGTTATAGAGA	0.716
TCCCAGGTAGTTCGCGAGA	0.256
TCCCAGATAGTTGAGGAGA	0.31
TCCCTGGCAGTGGCAGAGA	0.352
TCCCAGCTAGTGTAGGAGA	0.182
TCCCTTCTAGTGCTAGAGA	0.379
TCCCGACAAGTGTAGGAGA	0.144
TCCCGTACAGTATTCGAGA	0.109
TCCCTATTAGTCATCGAGA	0.458
TCCCATAGAGTGGGAGAGA	0.153
TCCCGTTAAGTCTCGGAGA	0.225
TCCCCCAGAGTGGTCGAGA	0.208
TCCCTGAAAGTGCTCGAGA	0.276
TCCCCCGCAGTGCATGAGA	0.385
TCCCGCTCAGTGTTGGAGA	0.0582
TCCCGGGGAGTTGTCGAGA	0.161
TCCCTGCAAGTGAATGAGA	0.188
TCCCGTGCAGTGGCTGAGA	0.225
